# Measurements from PMC4336329 (PLoS ONE, 2015).
# In all, about 310,000 compounds went through this assay and about 2,200 (0.71%) showed an effect of 50% or more. The effect is printed as a negative number. Some of the results follow.
# Target: human ether-à-go-go-related gene (hERG) potassium channel (human, UniProt Q12809)
# Assay: primary screen, population patch clamp on CHO cells stably expressing hERG
# Chain of human ether-à-go-go-related gene (hERG) potassium channel (Q12809 whole entry, looked up): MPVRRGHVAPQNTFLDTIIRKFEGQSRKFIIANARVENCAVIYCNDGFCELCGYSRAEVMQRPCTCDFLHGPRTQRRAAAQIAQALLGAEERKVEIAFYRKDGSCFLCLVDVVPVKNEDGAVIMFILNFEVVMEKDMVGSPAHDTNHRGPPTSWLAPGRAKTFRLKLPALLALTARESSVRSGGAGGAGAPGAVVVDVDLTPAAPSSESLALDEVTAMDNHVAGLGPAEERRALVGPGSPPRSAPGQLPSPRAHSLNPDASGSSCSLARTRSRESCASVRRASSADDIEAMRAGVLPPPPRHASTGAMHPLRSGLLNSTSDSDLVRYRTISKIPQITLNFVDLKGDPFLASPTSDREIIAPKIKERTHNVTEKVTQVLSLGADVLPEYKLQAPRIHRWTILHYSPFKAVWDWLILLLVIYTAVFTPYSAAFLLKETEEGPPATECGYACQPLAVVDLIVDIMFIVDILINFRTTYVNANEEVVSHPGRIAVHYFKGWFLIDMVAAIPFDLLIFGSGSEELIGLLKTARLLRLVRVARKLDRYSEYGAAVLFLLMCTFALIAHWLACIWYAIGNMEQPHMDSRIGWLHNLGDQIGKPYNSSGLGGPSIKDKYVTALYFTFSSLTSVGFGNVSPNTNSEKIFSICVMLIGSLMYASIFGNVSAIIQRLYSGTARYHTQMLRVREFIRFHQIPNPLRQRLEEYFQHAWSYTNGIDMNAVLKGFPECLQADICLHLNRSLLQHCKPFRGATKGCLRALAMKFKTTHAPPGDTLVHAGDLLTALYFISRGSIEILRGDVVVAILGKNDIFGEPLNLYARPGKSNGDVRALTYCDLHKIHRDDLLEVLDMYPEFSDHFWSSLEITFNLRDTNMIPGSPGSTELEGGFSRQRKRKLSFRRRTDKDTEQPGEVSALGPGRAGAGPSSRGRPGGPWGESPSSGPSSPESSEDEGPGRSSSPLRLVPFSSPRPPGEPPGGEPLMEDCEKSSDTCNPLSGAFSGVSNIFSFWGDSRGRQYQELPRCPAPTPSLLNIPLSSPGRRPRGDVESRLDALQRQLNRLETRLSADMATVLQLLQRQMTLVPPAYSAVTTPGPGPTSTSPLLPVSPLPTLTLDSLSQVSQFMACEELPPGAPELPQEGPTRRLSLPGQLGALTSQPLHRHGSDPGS
row,Compound,"hERG current change (%, negative = inhibition) at 1uM [%]"
1,CCN(c1ccc(OCC(=O)OCC(=O)Nc2ccc(F)c(F)c2F)cc1)S(=O)(=O)c1ccccc1,3.8
2,O=C(NCc1ccccc1)C(c1ccco1)N(C(=O)c1csnn1)c1ccccc1F (stereo not shown),10.7
3,O=C(Cn1ccc2cc(S(=O)(=O)N3CCCC3)ccc21)NCc1ccco1,9.42
4,O=S(=O)(N/N=C\c1ccc2c(c1)OCO2)c1ccccc1,11.2
5,Cc1cc(-c2ccccc2)nc2c(Br)c(C(=O)O)nn12,9.41
6,CCCn1c(Cc2ccccc2)nnc1SCC(=O)N1CCOCC1,10.4
7,O=C1CC(C(=O)N2CCCc3ccccc32)CN1c1ccc(F)cc1 (stereo not shown),3.19
8,CCc1nnc(NC(=O)CSc2nc3cccnc3n2C2CCCCC2)s1,-5.35
9,CCOc1cc(C2/C(=C(\O)c3cc(C)ccc3C)C(=O)C(=O)N2CCN(C)C)ccc1O (stereo not shown),-6.16
10,Cc1ccc(S(=O)(=O)N(C)S(=O)(=O)c2ccc(C)cc2)cc1,9.04
11,Cc1cc(C(=O)N/N=C/c2cc(Br)ccc2OC(=O)c2ccccc2Cl)n[nH]1,9.7
12,COc1ccc2c(COC(=O)CC3Sc4ccccc4NC3=O)cc(=O)oc2c1 (stereo not shown),-12.8
13,CCn1c(=O)n(CC(=O)NCC2CCCO2)c(=O)c2c3c(sc21)CCCC3 (stereo not shown),7.09
14,CN(C(=O)Oc1ccc(C(C)(C)C)cc1)c1ccccc1,17.7
15,Br.COc1ccc(/C(C)=N/Nc2nc(C)c(C(C)=O)s2)cc1,14.3
16,COc1ccccc1C(=O)Nc1cccc(NC(=O)c2ccccc2OC)n1,17.5
17,COc1ccc(C2SCCN2S(=O)(=O)c2ccc(F)cc2)cc1OC (stereo not shown),2.64
18,COC(=O)c1cc(C(=O)OC)cc(-n2c(C)cc(C=O)c2C)c1,6.13
19,CCOC(=O)/C=C/C(=O)Nc1ccc(S(=O)(=O)N(C)c2ccccc2)cc1,8.29
20,CC1CC(=S)Nc2ccccc2N1Cc1ccccc1 (stereo not shown),8.42
21,CCCCn1c(N)c(N(CCC(C)C)C(=O)CCN2C(=O)C3CC=CCC3C2=O)c(=O)[nH]c1=O (stereo not shown),5.54
22,CCN1CCN(C(c2cccs2)C(C)NC(=O)c2cccc(OC)c2)CC1 (stereo not shown),10.7
23,Cc1cc(C)c(C#N)c(SCc2nnc(-c3ccccc3)o2)n1,12.9
24,CC(C)N(Cc1ccccc1)C(=O)c1cnc2n(c1=O)CCS2,4.49
25,CCCc1cc(C(=O)Nc2ccc(C(=O)c3ccccc3)cc2)n(C)n1,1.33
26,Cc1c(C(=O)NCC2COc3ccccc3O2)oc2ccc(S(=O)(=O)N(C)C3CCCCC3)cc12 (stereo not shown),7.65
27,CCOC(=O)COn1c(=O)c(-c2cc3ccccc3o2)[n+]([O-])c2ccccc21,12.6
28,COc1ccc(Cl)cc1NC(=S)N1CCCCCC1,6.91

row,Compound,"hERG current change (%, negative = inhibition) at 1uM [%]"
1,CN(C)c1ccc(/C=N/N2CCN(Cc3ccccc3Cl)CC2)cc1,13.5
2,CCC(=O)N1CCc2cc(S(=O)(=O)CCC(=O)N3CCCC(C)C3)ccc21 (stereo not shown),10.7
3,COc1cc(NC(=O)COC(=O)CNC(=O)c2ccc(C)cc2)c(C)cc1[N+](=O)[O-],16.2
4,CCN(CC)CCN(C(=O)c1ccc(Br)s1)c1nc2cc3c(cc2s1)OCO3.Cl,8.19
5,Cn1cc(S(=O)(=O)Nc2ccc(Oc3ccccc3)cc2)c(=O)n(C)c1=O,10.6
6,CCOC(=O)c1ccc(-n2cc(C(=O)c3cccnc3)nn2)cc1,11.8
7,Cc1ccccc1OCC(=O)Nc1ccc(N2CCN(S(C)(=O)=O)CC2)cc1,5.16
8,Cc1ccc(NC(=O)C(CC(C)C)NC(N)=O)cc1Cl (stereo not shown),-2.5
9,Fc1cccc(CCN2CCNC[C@H]2Cc2cccc3ccccc23)c1,28.7
10,O=C(NCCO)/C(=C/c1cccc([N+](=O)[O-])c1)NC(=O)c1ccco1,9.43
11,O=S(=O)(c1cccc(-c2csc(-c3cccnc3)n2)c1)N1CCCCC1,1.52
12,CCc1ccc(NC(=O)CSCCN2C(=O)c3ccccc3C2=O)cc1,-8.99
13,CCOc1cc(NC(=O)c2cnccn2)c(OCC)cc1NC(=O)c1cccc(F)c1,12.1
14,Cc1ccccc1N1CCN(Cc2nc(Cc3ccccc3F)no2)CC1,9
15,C=CCSc1nc(C)c(CC(=O)OCC(C)C)c(=O)[nH]1,-1.25
16,CCC(C)C(NC(=O)c1ccccc1NC(=O)c1ccc(OC)cc1)C(=O)NCCCn1ccnc1 (stereo not shown),6.55
17,COC(=O)[C@@H]1C[C@H]2CC[C@H](O)C[C@H]2N1Cc1ccc(N2CCN(C)CC2)cc1,17
18,CCCn1c(=O)c2sccc2n2c(CCCC(=O)NCc3cccnc3)nnc12,20.4
19,CC(=O)Nc1cccc(-c2nnc(SCc3ccccc3C#N)n2C)c1,5.32
20,CN(C1(C)CCS(=O)(=O)C1)S(=O)(=O)c1ccc(F)cc1 (stereo not shown),10.6
21,Oc1c(Cl)cc(Cl)cc1CNc1ccc(Br)cn1,5.3
22,CC(C)CC(=O)Nc1ccc(N2CCOCC2)cc1,8.56
23,O=C(NCCCN1CCOCC1)c1cc(-c2cccc(Br)c2)nc2ccccc12,6.41
24,Cc1cc(NC(=O)COc2ccc(F)c(Cl)c2)no1,10.6
25,CC1CC(C)CN(CCCNC(=O)CN2C(=O)c3cccnc3Oc3ccccc32)C1 (stereo not shown),6.56
26,CC(C)Sc1nsc2nc(=O)c(/C=C3\C=Nc4ccccc43)c(N)n12,9.89
27,CC1(C)CC(=O)C(C(c2ccco2)C2C(=O)CC(C)(C)CC2=O)C(=O)C1,6.11
